The list shows a part of the results.
These compounds were tested on T1, C. trachomatis L2/434/Bu expressing GFP (CTL2-GFP). Details: total inclusion area; 28.5 h, 10 µM; inhibitor.
T1 construct: L2/434/Bu GFP intracellular growth in HeLa cells
Set-up: species or system HeLa; C. trachomatis total inclusion area by high-content imaging, normalised to DMSO
Outline: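 After bulk GFP and resorufin fluorescence reads, cells were fixed, stained with Hoechst and imaged by high-content microscopy. Inclusion area and number (GFP) stood in for chlamydial growth, nuclei count (Hoechst) for host cell viability. MICs were derived as for the bulk readout.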

Going from `CC(C)(C)c1ccnc(N[C@H]2CO[C@H]3[C@@H]2OC[C@@H]3NCc2ccccn2)n1` [CBK289524] to `CCNC(=O)Nc1ncc(-c2ccc(C(C)(C)C)cc2)c2cccnc12` [CBK070632], the “% of control remaining” value falls from 109.503 to 101.632.

First: COc1ccc(C(=O)NCCCSc2nc(C(C)(C)C)cc(C(F)(F)F)n2)cc1 [CBK268690]
Second: CC(C)(C)c1ccc(O)c(NC(=S)NC(=O)c2cccc(OCc3ccccc3)c2)c1 [CBK269018]
The “% of control remaining” value of the first is higher: 102.539 for the first, 82.3243 for the second.

Going from `NC(=O)CCCN1CC[C@H]2c3c(cccc3C(N)=O)CC[C@H]21` [CBK007883] to `C[C@H]1CN2CCCC2CN1Cc1cccc(F)c1F` (stereo partly drawn) [CBK285454], the “% of control remaining” value falls from 69.3828 to 61.3462.

First: O=C(O)CNC(=O)CNC(=O)C12CC3CC(CC(C3)C1)C2 [CBK287083]
Second: O=C(NCCC1=CCCCC1)c1cnc2n(c1=O)CCS2 [CBK287373]
The “% of control remaining” value of the first is higher: 98.019 for the first, 96.8724 for the second.

First: CCOc1ccc2nc(SCCN3CCOCC3)sc2c1 [CBK005888]
Second: COc1cncc(-c2ccc(N3CCN(CCN(C)C)CC3)nc2)c1 [CBK037720]
The “% of control remaining” value of the first is lower: 59.5682 for the first, 138.734 for the second.

Going from `O=C1NCC2(CCCN(Cc3ccc(F)cc3)C2)Oc2ccccc21` (stereo not drawn) [CBK284857] to `Cc1nc2ccccn2c1CN1CCC(Oc2ccc(F)cc2)CC1` [CBK281803], the “% of control remaining” value falls from 87.531 to 80.6475.

Compared with `COc1ccc(CCNC(=O)N2CCN(c3ccccc3)CC2)cc1` [CBK155199], `CCCc1ccc(S(=O)(=O)Nc2cccc(C(=O)N3CCN(C)CC3)c2)cc1` [CBK039034] is lower in “% of control remaining” value: 107.263 for the first, 13.4377 for the second.

Going from `S=C(Nc1ccccc1)N(Cc1ccccc1)Cc1ccncc1` [CBK267991] to `O=C(Nc1ccccn1)c1c(O)n(Cc2ccccc2)c2ccccc2c1=O` [CBK291213], the “% of control remaining” value rises from 70.0021 to 90.041.

Going from `CCOc1ccc(N2C(=O)CC(Nc3cc(C(=O)O)ccc3C)C2=O)cc1` (stereo not drawn) [CBK296651] to `Cc1cc(=O)oc2ccc(OCC(=O)Nc3ccc(S(=O)(=O)O)cc3)cc12` [CBK263185N], the “% of control remaining” value falls from 103.451 to 93.6828.

Going from `CCN(CC)C(=O)c1sccc1NS(=O)(=O)Cc1ccccc1[N+](=O)[O-]` [CBK050396] to `O=C(Cc1ccccc1F)NCCn1nc(-c2ccco2)ccc1=O` [CBK283705], the “% of control remaining” value falls from 126.605 to 102.498.

First: CC1=NN(c2nc(-c3ccc(Br)cc3)cs2)C(=O)C1/N=N/c1ccccc1C(=O)O (stereo not drawn) [CBK262440]
Second: Cc1cc(C)nc(N/C(=N/C(=O)CCN2C(=O)c3ccccc3C2=O)Nc2cccc(Cl)c2)n1 [CBK266507]
The “% of control remaining” value of the first is lower: 95.9854 for the first, 139.31 for the second.

Going from `Cc1nc(COc2ccc(Cl)cc2)sc1C(=O)N1CCCCC1C(=O)O` (stereo not drawn) [CBK304233] to `CC(N)C1CCCCN1S(=O)(=O)c1ccc(OCc2ncnn2C)cc1` (stereo not drawn) [CBK304272C], the “% of control remaining” value falls from 60.2433 to 49.2861.

Compared with `CC(Cc1c[nH]c2ccccc12)NC(=N)NC(=N)N` (stereo not drawn) [CBK268251C], `CC1(C)Cc2ccccc2C(NCC(=O)O)=N1` [CBK262562] is higher in “% of control remaining” value: 69.1949 for the first, 94.8824 for the second.

Compared with `COc1ccccc1NC(=O)Cn1c(=O)oc2cc(Cl)ccc21` [CBK269344], `COc1ccccc1CC(=O)Nc1ccc(-c2nnc(-c3ccc(C)cc3)o2)cc1` [CBK268329] is lower in “% of control remaining” value: 98.5761 for the first, 55.2934 for the second.

Compared with `CN1CCOC(CNCc2ccc(OCC(N)=O)cc2)C1` (stereo not drawn) [CBK304830], `COCC1CN(C(=O)Nc2nnc(Cc3ccc(C)cc3)s2)CCO1` (stereo not drawn) [CBK306278] is lower in “% of control remaining” value: 57.1463 for the first, 52.9461 for the second.

First: Cc1ccc(CNC(=O)Cc2ccc(-c3ccc(CN4CCC(C)CC4)cc3)nc2)cc1F [CBK158402]
Second: Nc1ncc(-c2ccc(C(=O)N3CCOCC3)cc2)nc1C(=O)NCc1ccc(O)cc1 [CBK149161]
The “% of control remaining” value of the first is lower: 77.5116 for the first, 104.097 for the second.

Going from `COc1ccc(Nc2nc(N)nc(CSC(=S)N3CCN(C)CC3)n2)cc1` [CBK265232] to `CN1CCN(C(=O)c2ccc(NS(=O)(=O)c3cc(Cl)sc3Cl)cc2)CC1` [CBK034549], the “% of control remaining” value rises from 88.5009 to 114.154.

Going from `O=C(c1ccccc1)N1CCc2[nH]nc(-c3ccccc3)c2C1` [CBK287904] to `Cc1ccc(/C=N/NC(=O)CN(c2ccccc2)S(=O)(=O)c2ccccc2)c(C)c1C` [CBK262098], the “% of control remaining” value rises from 97.8831 to 111.774.

First: CN(Cc1nc(-c2cccnc2)no1)S(=O)(=O)c1ccc2ccccc2c1 [CBK267385]
Second: Nc1ncc(-c2cccc(-c3ccccc3)c2)nc1NCc1cccnc1 [CBK063491]
The “% of control remaining” value of the first is lower: 84.8035 for the first, 156.584 for the second.

First: CCOc1cc(C2CC(=O)NC(SCC(=O)Nc3cccc(C(F)(F)F)c3)=C2C#N)ccc1O (stereo not drawn) [CBK265778]
Second: COc1cccc(-c2cccc(NS(=O)(=O)c3ccc4c(c3)CCC(=O)N4)c2)c1 [CBK286372]
The “% of control remaining” value of the first is lower: 64.3076 for the first, 85.443 for the second.

First: C/C(N)=C(/C#N)C(NC(=O)C1CCCCC1)(C(F)(F)F)C(F)(F)F [CBK267902]
Second: O=C(Nc1ccc2c(c1)nc1n2CCOC1)C1CCCCC1 [CBK307570]
The “% of control remaining” value of the first is higher: 95.0828 for the first, 75.7484 for the second.

Going from `O=C1N[C@H]2CCCN(C(=O)c3cc(=O)[nH]c(=O)[nH]3)[C@H]2C/C=C/CCOc2ccccc21` [CBK292065] to `O=C(CN1C(=O)N2CCN=C2c2ccccc21)N1CCCCC1` [CBK283865], the “% of control remaining” value rises from 79.6292 to 93.774.

Going from `Nc1ccc2ccc(-c3ccsc3)nc2n1` [CBK067624] to `O=C(Cn1c(-c2cccs2)cc2cccnc21)NCc1ccncc1` [CBK282456], the “% of control remaining” value rises from 93.0736 to 129.402.

First: Cc1csc(C(C)NC(=O)c2cccnc2NCc2ccc3c(c2)OCO3)n1 (stereo not drawn) [CBK153425]
Second: Cc1ccc2c(N)c(C(=O)c3ccc4c(c3)OCCO4)sc2n1 [CBK270265]
The “% of control remaining” value of the first is higher: 79.2496 for the first, 77.5166 for the second.

Going from `O=C(c1coc(COc2cccc(F)c2)n1)N1CC(n2cccn2)C1` [CBK306842] to `O=C(c1cc(C2CC2)on1)N1CCn2cc(C(F)(F)F)nc2C1` [CBK282425], the “% of control remaining” value rises from 59.6412 to 117.792.

Going from `Cc1nn(CCNC(=O)C(c2ccc(F)cc2)N(C)C)c(C)c1C` (stereo not drawn) [CBK282009] to `CN(C)c1ccc(CCNC(=O)c2c3c(nn2C)CCCC3)cc1` [CBK281824], the “% of control remaining” value rises from 77.1455 to 84.5527.

First: Nn1c(CSc2ccccn2)nnc1CSc1ccccn1 [CBK266987]
Second: Cc1cccc2c(C(=O)NCc3ccc(S(N)(=O)=O)cc3)cc(-c3ccccc3Cl)nc12 [CBK267743]
The “% of control remaining” value of the first is higher: 113.108 for the first, 90.1669 for the second.

First: Cc1c(C(=O)C2=C(O)C(=O)N(Cc3cccnc3)C2c2ccc(F)cc2)cnn1-c1ccccc1 (stereo not drawn) [CBK266541]
Second: Cc1ccc(Cc2c(C)[nH]c3[nH]n(-c4ccccc4)c(=O)c3c2=O)cc1 [CBK270273]
The “% of control remaining” value of the first is higher: 97.7641 for the first, 77.129 for the second.

First: O=C(O)c1ccc(S(=O)(=O)c2ccc(Oc3ccc4c(c3)C(=O)N(c3cccc(C(=O)O)c3)C4=O)cc2)cc1 [CBK263608]
Second: Cc1ccc(C(=O)O/C(=C/c2nc3ccccc3n2Cc2cccc3ccccc23)c2ccc(C)cc2)cc1 [CBK262485]
The “% of control remaining” value of the first is higher: 111.442 for the first, 100.192 for the second.

Going from `COc1ccccc1OCC(=O)N1CCC2(CCNC2)C1` (stereo not drawn) [CBK156703C] to `C=CCNC(=O)C1CCN(c2nc3ccccc3n2C)CC1` [CBK283955], the “% of control remaining” value rises from 78.2725 to 93.087.

Going from `COCCC(=O)N1CCC(F)CC1` [CBK200399] to `COC(=O)c1ccc(-c2cnc(OCC3CCN(C(=O)OC(C)(C)C)CC3)nc2)nc1` [CBK170130], the “% of control remaining” value rises from 45.2414 to 59.3074.

Going from `CNC(=O)C1(Cc2ccc(-c3cccs3)cc2)CCN(C(=O)C2CCCCC2)CC1` [CBK285793] to `CCN1CC(C(=O)NCc2ccc(CN3CCCCC3)cc2)CC1=O` (stereo not drawn) [CBK281400], the “% of control remaining” value falls from 104.541 to 98.3863.

Compared with `COc1ccc(-c2nc(NC(=O)c3cnccn3)cnc2-c2ccc(F)cc2)cc1` [CBK037150], `O=C(Nc1ccc2[nH]ccc2c1)c1ccc(Cl)cc1` [CBK159668] is lower in “% of control remaining” value: 93.4346 for the first, 83.2062 for the second.

First: Cc1cc(N2CCOCC2)nc2ccc(NC(=O)c3ccncc3)cc12 [CBK288587]
Second: O=S(=O)(Nc1ccc(N2CCNCC2)c2ccccc12)c1ccc(Cl)s1 [CBK003146C]
The “% of control remaining” value of the first is higher: 87.2476 for the first, 50.6799 for the second.

Compared with `Cc1cc(C(=O)CSc2nnc(C(C)C)n2Cc2ccco2)c(C)n1C` [CBK295178], `CCn1nc(C)c(C(C)NC(=O)C(C)n2cc(Cl)cn2)c1C` (stereo not drawn) [CBK281550] is lower in “% of control remaining” value: 118.628 for the first, 105.787 for the second.

Compared with `CN(C)c1ccc(C(=O)N2C3CCC2CC(O)(c2ccco2)C3)cc1` (stereo not drawn) [CBK284117], `Cc1cnc2c(c1)cc(C1CCOCC1)n2CC(=O)N(C)C` [CBK284754] is higher in “% of control remaining” value: 0 for the first, 72.2211 for the second.

First: COC(=O)c1c(NC(=S)NC(=O)c2c(Br)c(C)nn2C)sc2c1CCCCCC2 [CBK267486]
Second: CSc1ccc(CNC(=O)c2sc3nc(C)nc(N4CCCC4)c3c2C)cc1 [CBK294432]
The “% of control remaining” value of the first is lower: 105.975 for the first, 127.903 for the second.

First: Cc1cc(Cl)ccc1NC(=O)COCC(=O)O [CBK057723]
Second: Cc1ccc(N2CCN(CC(O)COc3ccc(C(=O)c4ccc(Cl)cc4)cc3)CC2)c(C)c1 (stereo not drawn) [CBK266117]
The “% of control remaining” value of the first is lower: 88.1123 for the first, 123.891 for the second.

Compared with `COCCN(CCOC)c1ncc(C#N)cc1Cl` [CBK306227], `CCn1cncc1CN(Cc1ccc(F)cc1)CC1CCCO1` (stereo not drawn) [CBK283036] is higher in “% of control remaining” value: 33.6208 for the first, 101.105 for the second.

— article PMC12040169 (PLOS Biology, 2025)
